# In PubChem BioAssay AID1345082 (National Center for Advancing Translational Sciences (NCATS), 2018):
# Out of some 94,000 compounds screened, about 4,000 (4.3%) were called active. This list was built around the results that the source calls inconclusive (neither active nor inactive); the mix of calls is not that of the screen. Calls come from the whole dose curve; as a rule, active = well fitted inhibition curve with a large enough effect; inconclusive = small, poorly fitted or top-dose-only effect; inactive = no such curve, though single readings can be large or run the other way. Potencies beside an inconclusive call are fits to weak or partial responses and may not hold up.
# Experiment: Cytotoxic Profiling in NIH 3T3 Cell Line of Diverse Libraries Using Quantitative High-Throughput Screening; note: nearly all actives have a fitted effect of over 55% in size
# Settings: NIH 3T3 viability, CellTiter-Glo ATP luminescence, 48-72 h; activity change, negative = cytotoxicity: at 96.7 µM (top of the series) unless noted; series mostly up to 96.7 µM
# Summary of the method: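 Cells were seeded at 400 per well, treated with pin-transferred compound, and kept 48 or 72 hr at 37 °C before CellTiter-Glo addition and luminescence imaging of cellular ATP.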
# % is set by controls: 0 for no effect and ±100 for the full control effect; potency is the fitted concentration of half-maximal effect; tags give direction and shape of the fitted curve.
Compound,Potency,"activity change, negative = cytotoxicity",outcome
N#Cc1ccc(C(=O)N2CCC(n3cc(-c4nc(-c5ccccc5)no4)nn3)CC2)cc1,"inconclusive: 11.2 µM [inhibitor, full curve, poor fit]",–,–
Cc1noc2c(N3CC(O)C3)cc(-c3ccc(F)cc3)nc12,"inconclusive: 50.1 µM [inhibitor, partial curve, poor fit]",–,–
O=C(NC1C[C@H]2CC[C@@H](C1)N2C(=O)Cc1cccc(F)c1)c1ccncc1 (some centres not stated),–,inactive: -23.2%,–
O=C(c1n[nH]c2c1CCCC2)N1CCc2nc3cc[nH]n3c(=O)c2C1,"inconclusive: 70.8 µM [inhibitor, single point]",–,–
CCCCn1c(=O)c(C(=O)N2CCN(C(=O)c3ccc(F)cc3)CC2)nc2cccnc21,–,inactive: 1.08%,–
O=C(COc1ccccc1)N1CCOC[C@H](Oc2ccc(C(F)(F)F)cc2)C1,"inconclusive: 100 µM [inhibitor, single point]",–,–
Cc1noc(C)c1S(=O)(=O)N1CCC2(CC1)N(c1ccccc1)C(=O)CS2=O (configuration not stated),–,–,inactive
O=C1CC2(CCN(C(=O)c3ccccc3F)CC2)CN1C/C=C/c1ccccc1,"inconclusive: 79.4 µM [inhibitor, partial curve, poor fit]",–,–
CN(C(=O)[C@@H]1CCCN1c1ccnc2ccnn12)c1ccccc1,"inconclusive: 44.7 µM [inhibitor, partial curve, poor fit]",–,–
CC1CCN([C@@H]2[C@H](O)[C@H](CO)O[C@@H]2CN(Cc2ccc(F)cc2)Cc2ccc(F)cc2)CC1,"inconclusive: 89.1 µM [inhibitor, partial curve, poor fit]",–,–
O=C1NC(=NC2CCCC2)C2(CCN(CC3CCCCC3)C2)N1c1cccnc1 (configuration not stated),"inconclusive: 35.5 µM [inhibitor, partial curve]",–,–
COc1ccc(C(=O)N2CCC(C(=O)N3CCC4(CC3)CC(=O)Nc3ccccc3O4)C2)cc1 (configuration not stated),–,inactive: -32.8%,–
COc1ccc(N2CC(c3noc(-c4ccc(C)c(C)c4)n3)CC2=O)cc1 (configuration not stated),"inconclusive: 70.8 µM [inhibitor, single point]",–,–
Fc1ccc(-c2cc(CC3(NCc4ccccc4F)COC3)no2)cc1,"inconclusive: 112 µM [inhibitor, partial curve, poor fit]",–,–
Cc1ccc(C)c(NC(=O)Cn2c(-c3ccccc3)nc(C)cc2=O)c1,"inconclusive: 50.1 µM [inhibitor, partial curve, poor fit]",–,–
Cn1c(C(=O)Nc2ccc3c(c2)OCO3)cc2c1CCN(Cc1cccc(F)c1)C2,"inconclusive: 50.1 µM [inhibitor, partial curve, poor fit]",–,–
CCc1ccc(NC(=O)COc2ccc(-c3nnc4n3CCCC4)cc2)cc1,–,inactive: -19.9%,–
